According to PubChem BioAssay AID652104 (National Center for Advancing Translational Sciences (NCATS), 2013):
About 7,200 (1.8%) of roughly 410,000 compounds were called active. This list was built around the results that the source calls inconclusive (neither active nor inactive); the mix of calls is not that of the screen. Calls follow the shape of the dose curve; as a rule, active = well fitted activation curve with a large enough effect; inconclusive = small, poorly fitted or top-dose-only effect, or another doubt; inactive = no such curve, though single readings can be large or run the other way. Potencies of inconclusive entries are left out as doubtful fits.

Assay: qHTS of TDP-43 Inhibitors; also: nearly all actives have a fitted effect of over 50% in size; as to growth rescue (activation): % of control where 0% means no effect
Conditions: TDP-43 expressing yeast growth rescue, BacTiter-Glo, 24 h; growth rescue (activation): at 46.1 µM (top of the series) unless noted
Method in brief: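 Readout is BacTiter-Glo luminescence of cell growth, so inhibitors register as activators. TDP-43-expressing yeast at OD600=0.02 in galactose medium, after raffinose pregrowth to mid-log, were incubated with compound for 24 hr at 30 deg C.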
Potency is read from the fitted curve at half-maximal effect; tags tell the direction and shape of the fitted curve.

Row | SMILES | Potency | growth rescue (activation)
1 | CCOC(=O)C1=CCN(S(=O)(=O)c2ccc(F)cc2)C1c1ccc(Br)cc1 (stereo unspecified) | active: 35.5 µM | 
2 | Cc1[nH]n(-c2ccccc2)c(=O)c1/C=N/N1C(=O)c2cccc3cccc(c23)C1=O | active: 17.8 µM | 
3 | CCCSc1ncc(Cl)c(C(=O)Nc2c(C(=O)Nc3ccccc3)oc3ccccc23)n1 | inconclusive [activator, partial curve, poor fit] | 
4 | COc1ccc(CCNC(=O)c2ccc(-n3c(C)cc4c3CCCC4)cc2)cc1OC | inactive | 
5 | CCCc1cc(=O)[nH]c(SCc2nc(-c3ccc(C)cc3)no2)n1 | inactive | 
6 | Cc1cc(C)c(S(=O)(=O)NCc2ccc3c(c2)OCO3)cc1C | inconclusive [activator, single point] | 
7 | COc1ccccc1CCNC(=O)Cc1c(C)c2cc3c(C(C)(C)C)coc3c(C)c2oc1=O | inactive | 
8 | O=C1N[C@@H](Cc2c[nH]c3ccccc23)C(=O)N[C@H]1Cc1ccccc1 | inconclusive [activator, partial curve] | 
9 | Cc1cc(C(=O)N2CCN(S(C)(=O)=O)CC2)sc1-c1ccccc1 | inactive | 
10 | CCn1c(Cn2nnc(-c3ccccc3)n2)nnc1SCc1ccc(Cl)c(Cl)c1 | inconclusive [activator, single point] | 
11 | O=C(Nc1ccc(N2C(=O)CCC2=O)cc1Cl)c1cccs1 | inconclusive [activator, full curve, poor fit] | 
12 | CCOC(=O)c1oc2cccc(O)c2c1CN(Cc1ccccc1)C(C)=O | inconclusive [activator, single point] | 
13 | COc1cc(/C=C/c2noc(-c3ccccc3O)n2)cc(OC)c1OC | inactive | 
14 | Cc1cc(C)c2c(n1)nn1c(C)c(CCC(=O)NCc3ccccc3Cl)c(C)nc21 | inactive | 
15 | Cc1nc(NC(=S)NC(=O)c2cccs2)ccc1Br | inconclusive [activator, full curve, poor fit] | 
16 | Nc1nonc1-n1nnc(C(=O)N/N=C/c2cc(Br)ccc2O)c1CSC1=NCCS1 | inconclusive [activator, single point] | 
17 | COc1ccccc1-c1ccc(SCc2ccc([N+](=O)[O-])cc2)nn1 | inconclusive [activator, partial curve] | 
18 | COc1ccc(-n2c(C)nc3c(cnn3-c3ccc(C)c(C)c3)c2=O)cc1 | inconclusive [activator, single point] | 
19 | Cc1nn2c(COc3ccc(NC(=O)c4ccccc4Cl)cc3)nnc2c2ccccc12 | inactive | 
20 | CCC(Sc1nc2ccccc2c2nc(CCc3c(C)n[nH]c3C)nn12)C(=O)Nc1ccc(OC)cc1 (stereo unspecified) | inconclusive [activator, full curve, poor fit] | 
21 | Cc1ccc2nc(NC(=O)C3CSC4(C)CCC(=O)N34)sc2c1 (stereo unspecified) | inconclusive [activator, single point] | 
22 | Nc1ncnc2c1ncn2[C@@H]1O[C@H](C(=O)NCCc2ccc(F)cc2)[C@@H](O)[C@H]1O | inactive | 
23 | O=c1oc2ccccc2n1CCc1ccccc1 | inconclusive [activator, single point] | 
24 | CC[C@]12c3[nH]c4ccccc4c3CCN1C(=O)C(CC(=O)NCC13CC4CC(CC(C4)C1)C3)C[C@@H]2C(=O)N1CCN(C(=O)c2ccco2)CC1 (stereo partly specified) | inconclusive [activator, full curve, poor fit] | 

Row | SMILES | Potency | growth rescue (activation)
25 | COc1ccc(CN(CC2CCC(C(=O)O)CC2)C(=S)Nc2ccc(C)c(Cl)c2)cc1 (stereo unspecified) | inconclusive [activator, single point] | 
26 | CCOc1ccccc1OCCCC(=O)N1CCN(S(=O)(=O)c2cc(F)ccc2F)CC1 | inconclusive [activator, partial curve] | 
27 | Cc1nnc(NC(=O)CSc2nccn2-c2ccc(Cl)cc2)s1 | inconclusive [activator, full curve, poor fit] | 
28 | CN1CCC[C@H]1CCNc1ccc2c(=O)c3ccccc3n(C)c2c1 | inactive | 
29 | O=C(/C=C/c1cccc([N+](=O)[O-])c1)NC(=S)Nc1cccc(NC(=O)c2ccccc2Cl)c1 | inconclusive [activator, partial curve] | 
30 | O=C(Nc1ccon1)c1cc2c(s1)CCCC2 | inactive | 
31 | CCn1c(=O)sc2cc(NC(=O)c3cccc(OC)c3)ccc21 | inconclusive [activator, partial curve] | 
32 | CCOC(=O)c1ccc(N=c2ssnc2Cl)cc1 |  | inconclusive: -93.4% [activator]
33 | C=C1C(=O)c2sccc2C(c2ccc(OC)c(OC)c2)C1COC(C)=O (stereo unspecified) | inconclusive [activator, single point] | 
34 | Cc1n[nH]c(=S)n1/N=C/c1cccc(OCc2ccccc2)c1 | inconclusive [activator, single point] | 
35 | N#CCSc1nnc(Cc2cccs2)n1C1CCCCC1 | inconclusive [activator, full curve, poor fit] | 
36 | CNC(=S)N/N=C/c1cn(Cc2c(F)cccc2Cl)c2ccccc12 | inconclusive [activator, single point] | 
37 | Cc1ccc(Cl)cc1N1CCN(C(=O)C2CCN(c3nnc(-n4cccc4)s3)CC2)CC1 | inconclusive [activator, partial curve] | 
38 | CC(C)N(C(=O)/C=C/c1cccc([N+](=O)[O-])c1)C(C)C | inconclusive [activator, partial curve] | 
39 | COc1ccc(-c2nn(-c3ccccc3)cc2C(=O)NC(=S)NNC(=O)c2ccncc2)cc1 |  | inconclusive: -74.6% [activator]
40 | Cc1ccc(OCc2nc(-c3ccc(C(=O)N4CCN(c5cc(Cl)ccc5C)CC4)cc3)oc2C)cc1 | inconclusive [activator, partial curve, poor fit] | 
41 | Cc1ccc(C(=O)Nc2ccc(S(=O)(=O)NC3=NCCCCC3)cc2)c(C)c1 | inactive | 
42 | O=C(NCc1ccc(F)c(F)c1)c1cccc2c(-c3cccnc3)coc12 | active: 12.6 µM | 
43 | COC(=O)c1ccc(CSc2ccccc2NC(=S)Nc2cccc(SC)c2)o1 | inconclusive [activator, single point] | 
44 | COc1ccc(Nc2nnc(SCC(=O)/C=C3/N(C)c4ccccc4C3(C)C)s2)cc1 | active: 11.2 µM | 
45 | COc1cc([N+](=O)[O-])cc(/C=N/NC(=O)Cn2cncn2)c1O | inconclusive [activator, single point] | 
46 | COc1cccc(CNC(=O)CSCc2cnn(-c3ccccc3)c2-n2cccc2)c1OC | inconclusive [activator, single point] | 
47 | COc1ccc(C(=O)N2N=C(c3ccccc3)CC2(O)C(F)(F)F)cc1 (stereo unspecified) | inconclusive [activator, single point] | 
48 | Cc1ccc(CSc2ccc3nnc(CCNS(=O)(=O)c4ccc(C)cc4)n3n2)cc1 | inactive | 

Row | SMILES | Potency | growth rescue (activation)
49 | COc1ccccc1NC(=O)Cc1ccc(-c2ccccc2)cc1 | active: 15.8 µM | 
50 | C#CC(C)(C)NC(=O)c1ccc(-c2ccccc2F)cc1 | inconclusive [activator, single point] | 
51 | CN(C)c1ccc(N=Nc2ccccc2C(=O)OCC(=O)NC2CCCC2)cc1 | inconclusive [activator, single point] | 
52 | CC1=C(C(=O)N2CCOCC2)CC(CC(=O)NCc2cccs2)C(=O)N1Cc1ccc(F)cc1 (stereo unspecified) | inconclusive [activator, single point] | 
53 | O=C(CCCc1cccs1)Nc1nc2c(s1)CCCC2 | active: 12.6 µM | 
54 | Cc1ccc(C)c(NC(=O)CN(C)C(=O)c2ccccc2OCc2ccc(Cl)cc2)c1 | inconclusive [activator, single point] | 
55 | COC(=O)C1(C)CN(S(=O)(=O)c2ccc(C)cc2)c2cc(OC)ccc2C1=O (stereo unspecified) | inactive | 
56 | CC(OC(=O)c1nc(Cl)ccc1Cl)C(=O)NC1CCCCC1C (stereo unspecified) | inconclusive [activator, partial curve] | 
57 | COc1ccc(-c2cc(C(=O)OC3CCOC3=O)c3ccccc3n2)cc1OC (stereo unspecified) | inconclusive [activator, partial curve] | 
58 | Cc1cc2ccccc2n1CCNC(=O)c1ccc(S(=O)(=O)N2CCCCC2)cc1 | inactive | 
59 | CN(C)S(=O)(=O)N1CCC(Oc2cccc(C(=O)NC3CCCCC3)c2)CC1 | inconclusive [activator, single point] | 
60 | COc1ccc(Cl)cc1C(=O)OCC(=O)NC1CCCC(C)C1C (stereo unspecified) | inconclusive [activator, single point] | 
61 | CN1C(=O)C(C)(C)c2cc(S(=O)(=O)N3CCN(c4ccccc4F)CC3)ccc21 | inconclusive [activator, partial curve] | 
62 | COc1ccccc1CNC(=O)C1CC(c2ccc([N+](=O)[O-])cc2)=NO1 (stereo unspecified) | inconclusive [activator, single point] | 
63 | Clc1ccc(-c2n[nH]c3c2CCC3)c(Cl)c1 | inconclusive [activator, single point] | 
64 | COc1ccc(-c2csc(Nc3ccccc3)n2)cc1 | active: 10 µM | 
65 | CCOc1ccc(C(=O)Nc2cc(-c3nc4ccccc4[nH]3)ccc2Cl)cc1[N+](=O)[O-] | active: 3.98 µM | 
66 | Cc1nc2cc(Cl)ccc2n1-c1ccccc1 | active: 12.6 µM | 
67 | CC(C)CC(=O)NC(=S)Nc1ccc(F)cc1F | inconclusive [activator, partial curve] | 
68 | O=C(NCCc1ccc(Cl)cc1)c1ccc2c(c1)N(Cc1ccccc1)C(=O)CS2 | inconclusive [activator, partial curve] | 
69 | Cc1ccc(NC(=O)CN2C(=O)c3ccccc3Sc3ncccc32)c(C)c1 | inactive | 
70 | COC(=O)CC1COc2ccccc2N1C(=O)c1ccc(Cl)cc1 (stereo unspecified) | inconclusive [activator, single point] | 
71 | CC1=CC(=O)N(c2cccc3c(N4C(=O)C=C(C)C4=O)cccc23)C1=O | inconclusive [activator, partial curve] | 
